Paper PMC4336329 (PLoS ONE, 2015)
Out of some 310,000 compounds screened, about 14,000 (4.5%) showed an effect of 50% or more. The effect is printed as a negative number. The list shows a part of the results.

Target: human ether-à-go-go-related gene (hERG) potassium channel (human, UniProt Q12809)
Assay: primary screen, population patch clamp on CHO cells stably expressing hERG
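Note: peak tail current of the secondary pulse compared with the same well before compound.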

human ether-à-go-go-related gene (hERG) potassium channel, sequence (Q12809 whole entry, looked up): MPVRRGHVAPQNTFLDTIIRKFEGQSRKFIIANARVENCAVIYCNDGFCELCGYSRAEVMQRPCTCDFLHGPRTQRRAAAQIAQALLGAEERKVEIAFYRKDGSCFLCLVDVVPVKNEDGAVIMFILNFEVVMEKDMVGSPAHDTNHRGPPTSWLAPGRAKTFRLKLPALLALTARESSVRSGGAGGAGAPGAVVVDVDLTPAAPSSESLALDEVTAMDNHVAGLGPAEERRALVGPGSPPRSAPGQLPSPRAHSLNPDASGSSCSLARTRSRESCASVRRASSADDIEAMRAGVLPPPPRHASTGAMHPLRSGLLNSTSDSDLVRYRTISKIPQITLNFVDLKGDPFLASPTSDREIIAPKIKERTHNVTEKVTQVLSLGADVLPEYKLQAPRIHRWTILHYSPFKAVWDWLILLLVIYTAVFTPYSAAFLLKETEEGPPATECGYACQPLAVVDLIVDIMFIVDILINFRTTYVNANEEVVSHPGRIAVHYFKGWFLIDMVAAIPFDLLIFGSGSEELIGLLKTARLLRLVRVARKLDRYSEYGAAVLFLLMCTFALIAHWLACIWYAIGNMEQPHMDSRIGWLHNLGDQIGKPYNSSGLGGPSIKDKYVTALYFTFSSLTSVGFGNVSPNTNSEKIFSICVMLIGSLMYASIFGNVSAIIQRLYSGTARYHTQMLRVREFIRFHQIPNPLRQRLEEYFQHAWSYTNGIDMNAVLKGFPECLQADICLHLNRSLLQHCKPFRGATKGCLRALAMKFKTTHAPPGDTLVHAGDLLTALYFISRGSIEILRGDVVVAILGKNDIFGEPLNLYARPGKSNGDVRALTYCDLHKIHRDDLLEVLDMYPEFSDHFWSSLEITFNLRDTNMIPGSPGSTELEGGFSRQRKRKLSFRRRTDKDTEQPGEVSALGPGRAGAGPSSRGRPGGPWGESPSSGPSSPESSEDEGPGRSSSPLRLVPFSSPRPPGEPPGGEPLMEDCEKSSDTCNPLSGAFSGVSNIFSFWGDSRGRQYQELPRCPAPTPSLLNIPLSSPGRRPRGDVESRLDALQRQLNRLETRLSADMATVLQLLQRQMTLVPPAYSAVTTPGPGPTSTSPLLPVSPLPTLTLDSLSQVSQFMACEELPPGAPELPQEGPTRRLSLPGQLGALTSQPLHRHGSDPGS

SMILES | hERG current change (%, negative = inhibition) at 10uM
COc1ccc2c(c1)[nH]c1c(=O)n(Cc3ccco3)cnc12 | 17%
Cc1nn(-c2ccccc2)nc1C(=O)Oc1cc(C(F)(F)F)nn1-c1ccccc1 | 0.669%
CC(C)(C)NC(=O)/C(=C\c1cccnc1)NC(=O)c1ccco1 | 9.16%
Cc1ccc(N2C(=O)CC(Sc3nccc(C)n3)C2=O)cc1 (stereo not shown) | 13.4%
CC(C)C(NC(=O)/C(=C\c1ccco1)NC(=O)c1ccco1)C(=O)O (stereo not shown) | 5.53%
C[C@@H](NC(=O)c1nc[nH]c1C(=O)N[C@@H](Cc1ccccc1)C(=O)OCc1ccccc1)c1ccccc1 | 3.97%
O=C(Nc1ccc(Oc2ccccc2)nc1)C1CCN(Cc2ccco2)CC1 | -30.8%
CCC(C)NC(=O)CSc1nnc(-c2ccc(Cl)cc2)n1N (stereo not shown) | 22.3%
O=C(CCc1ccccc1)NCCSc1ccccc1 | 0.33%
COc1ccc(C)cc1NC(=O)CN(C)S(=O)(=O)c1ccc2c(c1)c(=O)n(C)c(=O)n2C | 17%
Cc1c(C(=O)O)cc(-c2ccccc2)n1Cc1ccccc1 | 10%
COc1ccc(N(CC(=O)NCc2ccc(F)cc2)C(=O)CCC(=O)Nc2nccs2)cc1 | 16.8%
CC1(C)CC(=O)C2=C(C1)OC1=C(C(=O)CC(C)(C)C1)C2c1ccccc1 | 16.9%
O=C(Nc1ccccc1)/C(=C\c1cccs1)NC(=O)c1ccccc1 | 9.9%
COc1ccccc1NC(=O)CSc1nnc(Cn2cnc3ccccc32)n1C | -1.02%
N#CC(C(=O)NCCc1ccccc1)c1nc2ccccc2nc1N1CCOCC1 (stereo not shown) | 16.2%
COc1c(C)cc(Br)cc1C(=O)NC(=S)NCc1ccco1 | -11.7%
CCOc1cc(S(=O)(=O)NCCc2ccccc2C)c(OCC)cc1-n1cnnn1 | -20.9%
COC(=O)c1cc(NC(=O)c2c(C)noc2C)ccc1N1CCOCC1 | 17.6%
COc1ccccc1C(=O)Nc1cc2c(cc1C(=O)O)OCCCO2 | -2.13%
Cn1c(=O)n(C)c2cc(NC(=O)CCl)ccc21 | 5.19%
Cc1cccc(OCC(=O)Nc2ccc3c(c2)OCCO3)c1 | -1.06%

SMILES | hERG current change (%, negative = inhibition) at 10uM
COc1cccc(CC(=O)N2CCC(n3nccc3NC(=O)C3CC3)CC2)c1 | 32%
N#C/C(=C\c1ccc(O)c(O)c1)C(=O)NCCc1ccccc1 | -3.6%
O=C(CNC(=O)c1nc[nH]c1C(=O)N1CCc2ccccc2C1)OCc1ccccc1 | -15.2%
Cc1cc(C)n(C(=O)c2c([N+](=O)[O-])cnn2C)n1 | 6.74%
CC(C)CNC(=O)COC(=O)c1ccccc1SCC(=O)NCC(C)C | 2.44%
Cn1cccc1CC(=O)N/N=C/C=C/c1ccco1 | 9.32%
COc1ccccc1NC(=O)CSc1nnnn1-c1ccc2c(c1)OCO2 | -16.2%
CCOc1cc(/C=N/NC(=O)C(=O)NCc2ccc3c(c2)OCO3)ccc1OCC(=O)N1CCOCC1 | -1.21%
CSC1=NCCN1C(=O)c1ccc(S(=O)(=O)N2CCOCC2)cc1 | 13.4%
Cc1cccc(OC(=O)C2C(c3ccccc3)C(C(=O)O)C2c2ccccc2)c1 (stereo not shown) | -2.37%
COc1ccc(C(=O)O)cc1S(=O)(=O)NCCc1ccccn1 | 4.77%
Cc1sc2ncnc(NCCCO)c2c1C | 5.08%
COc1ccc2[nH]c(CN3CCN(C(C)C)C(CCO)C3)c(C)c2c1 (stereo not shown) | -10.6%
O=C(NC1CCCCC1)c1ccc2c(=O)n(CC3CCCO3)c(=O)[nH]c2c1 (stereo not shown) | 5.86%
COc1cc(OC)cc(C(=O)NCC(=O)OCC(=O)N2CC(C)CC(C)C2)c1 (stereo not shown) | 3.72%
CCCc1nn2c(=O)cc(CSCC(=O)Nc3cccc(OC)c3)nc2s1 | 12.8%
CN(C)CCNC(=O)C(=O)NCC1OCCN1S(=O)(=O)c1ccc([N+](=O)[O-])cc1 (stereo not shown) | -12.3%
CN(Cc1ccccc1)c1ccc([N+](=O)[O-])cc1C(=O)O | 17.5%
COC(=O)Nc1ccc([N+](=O)[O-])cc1OC | -1.3%
O=C(CSc1ccc2ccccc2c1Br)Nc1cccc(S(=O)(=O)NC2=NCCCCC2)c1 | 5.83%
CC(C)(C)C(O)C(Oc1ccc(Cl)cc1)n1cncn1 (stereo not shown) | -0.787%
